Assays:
NCI-H1944 cells = assay: ADC tumor cell killing, CCK8 assay, NCI-H1944; format: cell-based, human; conditions: CCK8, 72 h
NCI-N87 tumor = assay: ADC efficacy in mouse model bearing NCI-N87 tumor; format: in vivo; conditions: for Tumor growth inhibition (TGI): tail vein once a week, 3 administrations
HT-29 cells = assay: ADC tumor cell killing, MTS assay, HT-29; format: cell-based, human; conditions: 96 h, relative to control 99961.1-MMAE
A549 cells = assay: ADC tumor cell killing, MTS assay, A549; format: cell-based, human; conditions: 72 h, relative to control 99961.1-MMAE
MDA-MB-231 tumor = assay: ADC efficacy in mouse model bearing MDA-MB-231 tumor; format: in vivo; conditions: for Tumor growth inhibition (TGI): tail vein once a week, 3 administrations
Jeko-1 tumor = assay: ADC efficacy in mouse model bearing Jeko-1 tumor; format: in vivo

B1: B31-H3L3-MMAE (conjugate)
heavy: EVQLVESGGGLVQPGGSLRLSCAASGFTFSRYAMSWVRQAPGKGLEWVASISRGGSTYYADSVKGRFTISRDNSKNTLYLQMNSLRAEDTAVYYCASYFGNYDAMDYWGQGTTVTVSS[human IgG1 constant region not listed]
light: DIQMTQSPSSLSASVGDRVTITCRASQDINNYVSWFQQKPGKAPKSLIYRANRLVSGVPSRFSGSGSGTDFTFTISSLQPEDFATYYCLQFDEFPYTFGGGTKLEIKRTVAAPSVFIFPPSDEQLKSGTASVVCLLNNFYPREAKVQWKVDNALQSGNSQESVTEQDSKDSTYSLSSTLTLSKADYEKHKVYACEVTHQGLSSPVTKSFNRGEC
NCI-H1944 cells
  EC50: 0.117 µM
NCI-N87 tumor; 5 mpk, day 9
  Tumor growth inhibition (TGI): −1.37%
NCI-N87 tumor; 5 mpk, day 13
  Tumor growth inhibition (TGI): 50.63%
NCI-N87 tumor; 5 mpk, day 16
  Tumor growth inhibition (TGI): 66.26%
NCI-N87 tumor; 5 mpk, day 20
  Tumor growth inhibition (TGI): 78.22%
NCI-N87 tumor; 5 mpk, day 23
  Tumor growth inhibition (TGI): 83.03%
NCI-N87 tumor; 5 mpk, day 27
  Tumor growth inhibition (TGI): 90.91%
NCI-N87 tumor; 5 mpk, day 30
  Tumor growth inhibition (TGI): 91.62%
NCI-N87 tumor; 5 mpk, day 34
  Tumor growth inhibition (TGI): 94.93%
NCI-N87 tumor; 5 mpk, day 37
  Tumor growth inhibition (TGI): 93.89%
NCI-N87 tumor; 5 mpk, day 41
  Tumor growth inhibition (TGI): 95.15%
NCI-N87 tumor; 5 mpk, day 44
  Tumor growth inhibition (TGI): 94.2%
NCI-N87 tumor; 5 mpk, day 48
  Tumor growth inhibition (TGI): 94.68%
NCI-N87 tumor; 5 mpk, day 51
  Tumor growth inhibition (TGI): 91.52%
NCI-N87 tumor; 10 mpk
  tumor inhibition effect relative to 99961.1-MMAE: comparable to that of 99961.1-MMAE molecule
NCI-N87 tumor; 10 mpk, day 9
  Tumor growth inhibition (TGI): 9.34%
NCI-N87 tumor; 10 mpk, day 13
  Tumor growth inhibition (TGI): 70.29%
NCI-N87 tumor; 10 mpk, day 16
  Tumor growth inhibition (TGI): 85.24%
NCI-N87 tumor; 10 mpk, day 20
  Tumor growth inhibition (TGI): 93.39%
NCI-N87 tumor; 10 mpk, day 23
  Tumor growth inhibition (TGI): 96.64%
NCI-N87 tumor; 10 mpk, day 27
  Tumor growth inhibition (TGI): 98.1%
NCI-N87 tumor; 10 mpk, day 30
  Tumor growth inhibition (TGI): 98.59%
NCI-N87 tumor; 10 mpk, day 34
  Tumor growth inhibition (TGI): 98.9%
NCI-N87 tumor; 10 mpk, day 37
  Tumor growth inhibition (TGI): 99.04%
NCI-N87 tumor; 10 mpk, day 41
  Tumor growth inhibition (TGI): 99.11%
NCI-N87 tumor; 10 mpk, day 44
  Tumor growth inhibition (TGI): 99.31%
NCI-N87 tumor; 10 mpk, day 48
  Tumor growth inhibition (TGI): 99.48%
NCI-N87 tumor; 10 mpk, day 51
  Tumor growth inhibition (TGI): 99.31%
HT-29 cells
  killing effect on HT-29 tumor cells: slightly superior to that of the control 99961.1-MMAE
A549 cells
  killing effect on A549 tumor cells: slightly superior to that of the control 99961.1-MMAE
MDA-MB-231 tumor; 5 mpk, day 21
  Tumor growth inhibition (TGI): 24.01%
MDA-MB-231 tumor; 5 mpk, day 25
  Tumor growth inhibition (TGI): 50.35%
MDA-MB-231 tumor; 5 mpk, day 28
  Tumor growth inhibition (TGI): 67.87%
MDA-MB-231 tumor; 5 mpk, day 32
  Tumor growth inhibition (TGI): 79.37%
MDA-MB-231 tumor; 5 mpk, day 35
  Tumor growth inhibition (TGI): 85.76%
MDA-MB-231 tumor; 5 mpk, day 39
  Tumor growth inhibition (TGI): 89.98%
MDA-MB-231 tumor; 5 mpk, day 42
  Tumor growth inhibition (TGI): 90.53%
MDA-MB-231 tumor; 5 mpk, day 46
  Tumor growth inhibition (TGI): 88.81%
MDA-MB-231 tumor; 5 mpk, day 49
  Tumor growth inhibition (TGI): 86.62%
MDA-MB-231 tumor; 5 mpk, day 53
  Tumor growth inhibition (TGI): 58.88%
MDA-MB-231 tumor; 5 mpk, day 56
  Tumor growth inhibition (TGI): 79.79%
MDA-MB-231 tumor; 10 mpk, day 21
  Tumor growth inhibition (TGI): 29.51%
MDA-MB-231 tumor; 10 mpk, day 25
  Tumor growth inhibition (TGI): 59.33%
MDA-MB-231 tumor; 10 mpk, day 28
  Tumor growth inhibition (TGI): 74.57%
MDA-MB-231 tumor; 10 mpk, day 32
  Tumor growth inhibition (TGI): 87.43%
MDA-MB-231 tumor; 10 mpk, day 35
  Tumor growth inhibition (TGI): 91.32%
MDA-MB-231 tumor; 10 mpk, day 39
  Tumor growth inhibition (TGI): 94.55%
MDA-MB-231 tumor; 10 mpk, day 42
  Tumor growth inhibition (TGI): 95.56%
MDA-MB-231 tumor; 10 mpk, day 46
  Tumor growth inhibition (TGI): 95.87%
MDA-MB-231 tumor; 10 mpk, day 49
  Tumor growth inhibition (TGI): 96.03%
MDA-MB-231 tumor; 10 mpk, day 53
  Tumor growth inhibition (TGI): 91.85%
MDA-MB-231 tumor; 10 mpk, day 56
  Tumor growth inhibition (TGI): 96.60%
MDA-MB-231 tumor; low-dose condition (5 mpk)
  anti-tumor effect relative to positive control ADC: superior to that of the positive control ADC
Jeko-1 tumor; 2.5(D15)/3.5(D29) mpk, Q2W*2, day 17
  Tumor growth inhibition (TGI): 4.77%
Jeko-1 tumor; 2.5(D15)/3.5(D29) mpk, Q2W*2, day 20
  Tumor growth inhibition (TGI): 18.97%
Jeko-1 tumor; 2.5(D15)/3.5(D29) mpk, Q2W*2, day 22
  Tumor growth inhibition (TGI): 7.83%
Jeko-1 tumor; 2.5(D15)/3.5(D29) mpk, Q2W*2, day 24
  Tumor growth inhibition (TGI): 4.25%
Jeko-1 tumor; 2.5(D15)/3.5(D29) mpk, Q2W*2, day 27
  Tumor growth inhibition (TGI): 13.01%
Jeko-1 tumor; 2.5(D15)/3.5(D29) mpk, Q2W*2, day 29
  Tumor growth inhibition (TGI): 9.77%
Jeko-1 tumor; 2.5(D15)/3.5(D29) mpk, Q2W*2, day 31
  Tumor growth inhibition (TGI): 11.05%
Jeko-1 tumor; 2.5(D15)/3.5(D29) mpk, Q2W*2, day 34
  Tumor growth inhibition (TGI): 24.86%
Jeko-1 tumor; 2.5(D15)/3.5(D29) mpk, Q2W*2, day 36
  Tumor growth inhibition (TGI): 36.94%
Jeko-1 tumor; 2.5(D15)/3.5(D29) mpk, Q2W*2, day 38
  Tumor growth inhibition (TGI): 42.42%
Jeko-1 tumor; 2.5(D15)/3.5(D29) mpk, Q2W*2, day 41
  Tumor growth inhibition (TGI): 34.96%
Jeko-1 tumor; 2.5 mpk, QW*3, day 17
  Tumor growth inhibition (TGI): 6.14%
Jeko-1 tumor; 2.5 mpk, QW*3, day 20
  Tumor growth inhibition (TGI): 13.78%
Jeko-1 tumor; 2.5 mpk, QW*3, day 22
  Tumor growth inhibition (TGI): 10.83%
Jeko-1 tumor; 2.5 mpk, QW*3, day 24
  Tumor growth inhibition (TGI): 20.13%
Jeko-1 tumor; 2.5 mpk, QW*3, day 27
  Tumor growth inhibition (TGI): 40.94%

— US20250177546A1, “ROR1-TARGETED BINDING MOLECULE AND USE THEREOF” (SANYOU BIOPHARMACEUTICALS CO., LTD., priority 2022, published 2025)
